Laboratory results as given in PubChem BioAssay AID1963576 (National Center for Advancing Translational Sciences (NCATS), 2024).
In all, about 46,000 compounds went through this assay and about 60 (0.1%) were called active. About 3% were inconclusive and are not listed. Calls follow the shape of the dose curve; as a rule, active = well fitted inhibition curve with a large enough effect; inconclusive = small, poorly fitted or top-dose-only effect; inactive = no such curve, though single readings can be large or run the other way. The list shows a part of the results.

Test: Primary qHTS assay for Inhibitors of ovarian cancer metastasis using an organotypic tumor microenvironment (TME) model. Also: nearly all actives have a fitted effect of over 65% in size.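 As to activity change, negative = inhibition: plate controls were DMSO wells for no effect and tomatine positive control wells for full effect.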
Conditions: SKOV3ip1-GFP adhesion/invasion on 3D omental model, fluorescence; series mostly up to 45.8 µM; activity change, negative = inhibition: at the top concentration
Outline: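 Adhesion/invasion was scored as fixed GFP-labeled SKOV3ip1 cell counts (488/509 nm), normalized to DMSO and tomatine controls. Cancer cells in serum-free medium, with four compound doses (0.36-46 umol/L), sat 2 hr at RT then 16 hr at 37 C on a 48 hr fibroblast/mesothelial/ECM culture.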

Activity change, negative = inhibition, inactive:
CCc1cccc(NC(=O)Cn2nc(-c3ccc(OC)cc3)ccc2=O)c1 1.29%, CCCCC(Sc1nc2cc3c(cc2c(=O)n1CCCC(=O)NCc1ccc(OC)cc1)OCO3)C(=O)OCC (stereo not given) -8.64%, COc1cc(NC(=O)C2CCCN(S(=O)(=O)c3ccc4c(c3)oc(=O)n4C)C2)c(C(=O)O)cc1OC (stereo not given) -21.8%, CC(C)OCCCNC(=O)c1cc2c(-c3ccc(Cl)cc3)nn(C)c2s1 -3.1%, COc1ccc2c(C)c(CC(=O)NCc3ccc(C)cc3)c(=O)oc2c1OC 15.5%, CCOC(=O)c1[nH]c(C)c(CCC(=O)NCc2ccc(OCC)cc2)c1C 23.3%, O=C(NCc1ccccc1F)c1ccc(CN2CC(=O)N3CCCCC3C2=O)cc1 (stereo not given) -13.8%, CCc1ccc(CNC(=O)c2cnc3sc4cc(OC)ccc4n3c2=O)cc1 7.18%, CCOC(=O)c1sc2cccc(F)c2c1S(=O)(=O)N1CCN(c2cccc(Cl)c2)CC1 5.26%, N#C/C(=C\c1ccc(Cl)cc1)c1nc(-c2cc3ccccc3oc2=O)cs1 -12.1%, COc1cccc(C(=O)N2c3cc(C)ccc3C(C)(c3ccccc3)CC2(C)C)c1 (stereo not given) 4.68%, Cc1ccc(NC(=O)CSc2nc3c(oc4ccccc43)c(=O)n2-c2ccc(F)cc2)c(C)c1 -3.28%, CCCCOc1ccccc1C(=O)N(Cc1ccc(C)o1)C1CCS(=O)(=O)C1 (stereo not given) -15.8%, COc1ccc(Nc2ncc3c(n2)CCN(Cc2cc(Br)cs2)C3)c(OC)c1 -1.34%, CCOc1ccccc1NC(=O)Cn1nnc2sc(-c3ccccc3)cc2c1=O 0.319%, CC(C)c1ccc(S(=O)(=O)NCc2ccc3c(c2)CCN3C(=O)c2ccccc2)cc1 5.09%, Cc1cccn2c(=O)c3cc(C#N)c(=O)n(-c4nnc(SCc5ccccc5F)s4)c3nc12 19.9%, COc1ccc2cc(-c3nc4ccc(C(=O)O)cc4[nH]3)c(=O)oc2c1 0.98%, C=Cc1ccc(Cn2nc(-c3ccc(C)c(S(=O)(=O)N(CC)CC)c3)ccc2=O)cc1 19%, CCc1ccccc1NC(=O)Nc1cc(C(=O)NCc2ccc(C)cc2)ccc1N1CCCC1 -1.34%, CCOc1ccccc1NC(=O)c1c(NC(=O)c2cccc(C)c2)sc2c1CCCC2 -18.6%, CC(C(=O)NCc1ccccc1F)n1ccc2cc(S(=O)(=O)N3CCCC3)ccc21 (stereo not given) 11.3%, O=c1c(S(=O)(=O)c2ccccc2)cn(Cc2ccccc2)c2cc(N3CCOCC3)c(F)cc12 3.35%, CC1CN(C(=O)Nc2ccc(C(=O)NCc3cccc(F)c3)cc2)c2ccccc2S1 (stereo not given) -12.7%, O=C(Nc1ccccc1Cl)N1CCC(CN2CCCCC2)CC1 4.14%, O=C(Nc1ccc(C(F)(F)F)cc1)C1CCCN(c2cnccn2)C1 (stereo not given) -4.69%, CCOC(=O)c1ccccc1NC(=O)N(C)CCc1c(C)nn(CC)c1C -2.69%, Cc1cc(C)cc(Oc2nc3c(c(=O)n(C)c(=O)n3C)n2Cc2ccc(F)cc2)c1 3.27%, CCc1nnc(SCC(=O)Nc2ccc(F)cc2F)c2cc3sc(C)cc3n12 -6.71%, COc1cc(C(=O)Nc2ccc3oc(-c4ccc(C)c(Br)c4)nc3c2)cc(OC)c1OC -1.04%, COc1ccc(N2CCN(c3oc(/C=C/c4cc(OC)c(OC)c(OC)c4)nc3C#N)CC2)cc1 -8.01%, COc1ccc(Nc2cc(C(=O)NCc3ccccc3OC)c3ccccc3n2)cc1 8.02%, Cc1cc(OCC(=O)N(Cc2sccc2C)C2CCS(=O)(=O)C2)ccc1Cl (stereo not given) 1.51%, CCc1cccc(C)c1NC(=O)CSc1nnc(CC)n2c1cc1occc12 0.0584%, COc1ccc(CNC(=O)CN2C(=O)c3cccnc3Oc3ccc(C)cc32)cc1 2.51%, Cc1cc(C)c2c(CC(=O)Nc3c(C(=O)Nc4ccc(Cl)cc4)oc4ccccc34)coc2c1 -13.4%, CCCSCCCNC(=O)c1ccc2nc(Cc3ccccc3)oc2c1 4.59%, O=C(CN1C(=O)COc2ccc(S(=O)(=O)N3CCCCCC3)cc21)NCc1ccc(F)cc1 -24.5%, Cc1ccc(NC(=O)C(=O)NCC2(c3ccccc3)CCCC2)cc1Cl 0.713%, Cn1c(=O)oc2cc(S(=O)(=O)Nc3ccc(C(=O)O)cc3)ccc21 -9.92%, CCC(=O)N1CCc2cc(S(=O)(=O)NC(C(=O)Nc3ccc(C(C)=O)cc3)C(C)C)ccc21 (stereo not given) -1.96%, Cc1cc(C)c2c(CC(=O)N(Cc3ccccc3)C3CCS(=O)(=O)C3)coc2c1 (stereo not given) -9.27%, Cc1cc(C)cc(OCC(=O)Nc2ccc(-c3nc4ccccc4o3)cc2)c1 0.159%, COc1ccc(NC(=O)c2cccn2-c2nnc(N3CCCCC3)s2)cc1 7.36%, Cc1ccc(OCC(=O)Nc2ccc3nc(SCC(=O)N4CCc5ccccc54)sc3c2)cc1 -5.05%, COc1ccccc1CNC(=O)c1ccc(-c2nc(CN3CCc4ccccc43)c(C)o2)cc1 4.66%, Cc1ccc(Cl)cc1N1CCN(c2ncnc3onc(C)c23)CC1 20.9%, CCn1c(=O)c2sccc2n2c(CCC(=O)Nc3cc(C)cc(C)c3)nnc12 6.71%, CCOC(=O)C1CCCN(c2nc3c(S(=O)(=O)c4ccc(C)c(C)c4)nnn3c3ccc(Cl)cc23)C1 (stereo not given) -2.01%, Cn1cnc(=N)c2[nH]cnc21 -10.9%, COc1cccc(C(=O)Nc2cc3c(cc2C(=O)c2ccc(C)cc2)OCCO3)c1 3.06%, COc1cccc(N2CCN(C(=O)C3CCN(S(=O)(=O)c4ccc5c(c4)oc(=O)n5C)CC3)CC2)c1 -5.23%, COc1ccc2c(c1)CC(C(=O)NCCCN1CCN(c3ccc(F)cc3)CC1)CO2 (stereo not given) 4.3%, COc1ccc(-c2nc(CS(=O)CC(=O)NCc3ccccc3OC)c(C)o2)cc1 (stereo not given) -1.94%, Clc1ccc(N2CCN(c3ncnc4c3nc3n4CCCC3)CC2)cc1 0.851%, Cc1ccc(CNS(=O)(=O)c2ccc(-c3cc(C(F)(F)F)on3)s2)cc1 2.9%, COc1ccc(Cl)cc1NC(=O)Cn1c(=O)n(CCC(=O)NCc2ccc3c(c2)OCO3)c(=O)c2ccccc21 54.7%, CCOc1ccccc1C(=O)Nc1nc2c(s1)CC(C)CC2 (stereo not given) 2.97%, Cc1ccc(N2C(=O)[C@@H]3CSC(c4ccc(F)cc4)N3C2=O)cc1 (stereo not given in full) -1.23%, Cc1ccccc1NC(=O)Cn1c(=O)n(CC2CCC(C(=O)NCCc3ccccc3)CC2)c(=O)c2ccccc21 (stereo not given) 4.44%, COC(=O)Cn1c(=O)c2c(nc3n2CCN3c2ccc(F)cc2)n(C)c1=O 2.32%, O=C(NCc1ccccc1Cl)NCc1noc2ccccc12 -18.9%, COc1cccc(-n2c(SCC(=O)c3ccc(Cl)cc3)nc3c([nH]c4ccccc43)c2=O)c1 4.18%, Cc1nn(C(C)(C)C)c(OC(=O)C(C)(C)C)c1Sc1ccccc1 -2.91%, O=C(Nc1ccc(Cl)c(-c2nc3cc(Cl)ccc3o2)c1)c1cc([N+](=O)[O-])ccc1N1CCOCC1 -4.24%, COc1cc(NC(=O)COCc2cc(-c3ccc(F)cc3)on2)cc(OC)c1OC -7.22%, Cc1ccc(C(=O)Nc2cc3c(cc2N2CCCC2)n(C)c(=O)c(=O)n3C)cc1 6.74%, CC(C)(C)NC(=O)[C@H]1CC[C@H]2[C@@H]3CC[C@H]4NC(=O)C=C[C@]4(C)[C@H]3CC[C@]12C -9.37%, COc1ccccc1N1CCN(c2nc(-c3ccc(C)cc3)nc3ccccc23)CC1 9.02%, COc1cccc(NC(=O)C2CCCN(S(=O)(=O)c3ccc4[nH]c(=O)ccc4c3)C2)c1 (stereo not given) 20.8%, CCOc1ccc(-c2cc3c(=O)n(CC(=O)NCc4ccc(Cl)cc4)ccn3n2)cc1 3.5%, CC(=O)Nc1ccc(NC(=O)Cn2nc(C(=O)Nc3ccc(C)cc3)ccc2=O)cc1 -13.1%, CCCOc1ccc(Oc2nc(NCC(C)C)nc(N3CCOCC3)n2)nn1 -5.39%, Cc1ccc(-n2c(SCC(=O)O)nc3sc4c(c3c2=O)CCCC4)cc1 -5.15%

outcome, inactive:
Cc1ccc(NC(=O)c2c(C)oc3ccc(O)c(CN4CCCCCC4)c23)c(C)c1, Cc1cc(C)c(NC(=O)Cn2c(=O)n(Cc3ccc4c(c3)OCO4)c(=O)c3ccc(C(=O)NC4CCCCC4)cc32)c(C)c1, CCc1ccc(NC(=O)C(=O)NCCc2csc(-c3ccc(C(F)(F)F)cc3)n2)cc1, CCCn1c2ccccc2c2cnn(CC(=O)N3CCC(C)CC3)c(=O)c21, O=C(O)CSc1c2c(nc3cc(C(=O)Nc4ccc(F)c(Cl)c4)ccc13)CCC2, COc1ccccc1NC(=O)c1cc2c(=O)oc3ccc(C)cc3c2s1, CCOC(=O)c1ccc(N2CCN(c3cc(C)ccc3C)CC2)c(NC(=O)Nc2ccccc2)c1, COc1ccc(CNC(=O)c2ccc3c(c2)nc2n3CCC(C)C2)c(OC)c1 (stereo not given), COCCNC(=O)CSc1nc2cc3c(cc2c(=O)n1CCCCCC(=O)NCc1ccc(OC)cc1)OCO3, Cn1nc(-c2ccc(C(=O)Nc3ccc(F)cc3)cc2)c2ccccc2c1=O, COCCCNC(=O)CCCCn1c(=O)c2ccccc2n(CC(=O)Nc2ccc(C)cc2C)c1=O, COc1ccc(Br)cc1C(=O)Nc1nc2ccc(F)cc2s1, Cc1cc(Nc2cccc(Cl)c2)nc2ccc(NC(=O)c3cccnc3)cc12, CCSc1ncc(Cl)c(C(=O)Nc2ccc(S(=O)(=O)N(C)c3ccccc3)cc2)n1, Cc1ccc(NC(=O)CSc2nc3n[nH]c(C)c3c(=N)n2-c2cccc(C)c2)cc1, CCOC(=O)N1CCc2c(sc3c2c(=O)n(CCc2ccccc2)c(=O)n3Cc2c(F)cccc2Cl)C1, O=C(NCCc1ccccc1)c1cnn(-c2ccc(F)cc2)c1-n1cccc1, CCc1ccc(CNC(=O)CN2CCSc3ccccc32)cc1, Nc1c(C(=O)Nc2ccccc2)nnn1Cc1ccc(F)cc1Cl, O=C(O)CCn1cnc2onc(-c3cc(F)cc(F)c3)c2c1=O, Cn1cc(C(=O)N2CCN(c3cccc(C(F)(F)F)c3)CC2)c2c3ccccc3n(C)c2c1=O
